Assay results reported in patent US4220790A, “1-N,N-Dimethylcarbamyl-3-tert.butyl-5-methylthio-1,2,4-triazole” (priority 1977, dated 1980).
The name of at least one read-out is uncertain.

Tests used:
southern armyworm = assay: Spray test on southern armyworm larvae (SA); assay type: in vivo; details: 500 ppm; 48 hours after spraying
bean aphids = assay: Spray test on bean aphids (BA); assay type: in vivo, bean aphid; details: 48 hours after spraying
Southern Corn Rootworm = assay: Southern corn rootworm (SCR) test in cups with corn; assay type: in vivo; details: nine days after treatment
Method: Method for Southern Corn Rootworm (SCR)
Three 5 oz. paper cups planted each with one kernel of DeKalb XL-361 corn are treated two days after planting with 10 ml of a 125 ppm solution of the candidate compound. Compounds with high efficacy are tested at lower concentrations. The experiment is a 4×5 factorial in a randomized complete block design with three replications. The tests are evaluated nine days after treatment. The roots are inspected under a dissecting microscope and rated as follows:
SCR Rating % Root Feeding Damage
So as to obtain more meaningful results, all tests are performed at the same time of day, whenever possible, usually in the forenoon. Temperature,illumination and humidity are the same in all tests. Atmospheric pressure is not controlled.
(§1) Results obtained with the novel insecticide of this invention at various concentrations of active chemical are tabulated below. The ratings given are for averages of three or more replicates. The oral lethal dose for 50 percent kill of laboratory rats is also recorded in the table. In conducting the toxicity tests on rats, 0.01 g of active chemical per ml in corn oil is employed as an additive to the diet of the animals.

Mexican bean beetle = assay: Spray test on Mexican bean beetle larvae (MBB); assay type: in vivo; details: 48 hours after spraying
two-spotted mites = assay: Spray test on two-spotted mites (TSM); assay type: in vivo, two-spotted mite; details: 48 hours after spraying
Method: Method for Mites, Aphids, Bean Beetles and Army Worms
Three 5 oz. paper cups containing Henderson dwarf lima bean plants and one 5 oz. paper cup containing Orange Gem nasturtiums, all growing in vermiculite, are placed on a turntable and sprayed to thorough wetness with 25 ml of a solution of the candidate chemical at the appropriate concentration. Nasturtiums were already infested with 50-100 bean aphids (BA). A bean plant in one paper cup was already infested with 50-100 two-spotted mites (TSM). Leaves from the two remaining bean plants are removed following spraying and placed in disposable petri dishes with 5 southern armyworm (SA) larvae in one petri dish, and 5 Mexican bean beetle (MBB) larvae in the other petri dish. The rating is done approximately 48 hours after spraying as follows:
as §1

SMILES | Southern Armyworm rating (southern armyworm) | Bean Aphid rating (bean aphids; 15 ppm) | Bean Aphid rating (bean aphids; 31 ppm) | Bean Aphid rating (bean aphids; 62 ppm) | Bean Aphid rating (bean aphids; 125 ppm) | Bean Aphid rating (bean aphids; 250 ppm) | Bean Aphid rating (bean aphids; 500 ppm) | Corn Rootworm (SCR) rating (Southern Corn Rootworm; 100 ppm) | Mexican bean beetle rating (Mexican bean beetle; 500 ppm) | Two-Spotted Mites rating (two-spotted mites; 500 ppm) | also measured
Cc1nc(SCc2ccccc2)n(C(=O)N(C)C)n1 [Example XIII isomer] | 0 (no larvae dead) | 0 (none dead) | 0 (none dead) | 0 (none dead) | 3 (51= 75% dead) | 5 (100% dead) | 4 (76-100% dead) | 0 (100) | 0 (no larvae dead) | 0 (no dead adults) | 
CCN(CC)C(=O)n1cnc(SC(C)C)n1 | 0 (no larvae dead) |  |  |  |  |  | 0 (none dead) |  | 0 (no larvae dead) | 2 (26-50% dead adults) | 
CSc1nc(C(C)(C)C)nn1C(=O)N(C)C [1-N,N-Dimethylcarbamyl-3-tert.butyl-5-methylthio-1,2,4-triazole] | 1 (1-25% larvae dead) | 5 (100% dead) | 5 (100% dead) | 5 (100% dead) | 5 (100% dead) | 5 (100% dead) | 5 (100% dead) | 5 (0) | 5 (100% larvae dead) | 0 (no dead adults) | Bean Aphid rating (bean aphids; 2 ppm): 1 (1-25% dead); Bean Aphid rating (bean aphids; 4 ppm): 3 (51= 75% dead); Bean Aphid rating (bean aphids; 8 ppm): 5 (100% dead); Corn Rootworm (SCR) rating (Southern Corn Rootworm; 3 ppm): 3 (26-50); Corn Rootworm (SCR) rating (Southern Corn Rootworm; 12 ppm): 5 (0); Corn Rootworm (SCR) rating (Southern Corn Rootworm; 25 ppm): 5 (0); Corn Rootworm (SCR) rating (Southern Corn Rootworm; 50 ppm): 5 (0); Mexican bean beetle rating (Mexican bean beetle; 4 ppm): 0 (no larvae dead); Mexican bean beetle rating (Mexican bean beetle; 8 ppm): 3 (51-75% larvae dead); Mexican bean beetle rating (Mexican bean beetle; 31 ppm): 5 (100% larvae dead); Mexican bean beetle rating (Mexican bean beetle; 62 ppm): 5 (100% larvae dead); Mexican bean beetle rating (Mexican bean beetle; 125 ppm): 5 (100% larvae dead); Mexican bean beetle rating (Mexican bean beetle; 250 ppm): 5 (100% larvae dead)
CSc1nc(C)nn1C(=O)N(C)C [Example II] | 0 (no larvae dead) | 4 (76-100% dead) | 5 (100% dead) | 5 (100% dead) | 5 (100% dead) | 5 (100% dead) | 4 (76-100% dead) | 0 (100) | 0 (no larvae dead) | 0 (no dead adults) | Bean Aphid rating (bean aphids; 2 ppm): 0 (none dead); Bean Aphid rating (bean aphids; 4 ppm): 0 (none dead); Bean Aphid rating (bean aphids; 8 ppm): 1 (1-25% dead)
CCN(CC)C(=O)n1nc(C(C)(C)C)nc1SCc1ccccc1 | 0 (no larvae dead) |  |  |  |  |  | 0 (none dead) |  | 0 (no larvae dead) | 0 (no dead adults) | 
CN(C)C(=O)n1nc(Cl)nc1Cl [Example XIX] | 0 (no larvae dead) |  |  |  |  |  | 0 (none dead) |  | 0 (no larvae dead) | 0 (no dead adults) | 
CSc1nc(Cc2ccccc2)nn1C(=O)N(C)C | 0 (no larvae dead) | 0 (none dead) | 1 (1-25% dead) | 2 (26-50% dead) | 4 (76-100% dead) | 4 (76-100% dead) | 4 (76-100% dead) | 0 (100) | 0 (no larvae dead) | 0 (no dead adults) | 
CCSc1nc(C)nn1C(=O)N(C)C [Example X] | 0 (no larvae dead) | 5 (100% dead) | 5 (100% dead) | 5 (100% dead) | 5 (100% dead) | 5 (100% dead) | 5 (100% dead) | 0 (100) | 5 (100% larvae dead) | 0 (no dead adults) | Bean Aphid rating (bean aphids; 2 ppm): 0 (none dead); Bean Aphid rating (bean aphids; 4 ppm): 0 (none dead); Bean Aphid rating (bean aphids; 8 ppm): 2 (26-50% dead); Mexican bean beetle rating (Mexican bean beetle; 15 ppm): 0 (no larvae dead); Mexican bean beetle rating (Mexican bean beetle; 31 ppm): 0 (no larvae dead); Mexican bean beetle rating (Mexican bean beetle; 62 ppm): 0 (no larvae dead); Mexican bean beetle rating (Mexican bean beetle; 125 ppm): 3 (51-75% larvae dead); Mexican bean beetle rating (Mexican bean beetle; 250 ppm): 5 (100% larvae dead)
CC(C)(C)c1nc(SCc2ccccc2)n(C(=O)N2CCCCC2)n1 | 0 (no larvae dead) |  |  |  |  |  | 0 (none dead) |  | 0 (no larvae dead) | 0 (no dead adults) | 
CCc1nc(SC)n(C(=O)N(C)C)n1 [Example XVI] | 1 (1-25% larvae dead) | 5 (100% dead) | 5 (100% dead) | 5 (100% dead) | 5 (100% dead) | 5 (100% dead) | 4 (76-100% dead) |  | 5 (100% larvae dead) | 5 (100% dead adults) | Bean Aphid rating (bean aphids; 2 ppm): 2 (26-50% dead); Bean Aphid rating (bean aphids; 4 ppm): 2 (26-50% dead); Bean Aphid rating (bean aphids; 8 ppm): 4 (76-100% dead); Corn Rootworm (SCR) rating (Southern Corn Rootworm; 6 ppm): 2 (51-75); Corn Rootworm (SCR) rating (Southern Corn Rootworm; 50 ppm): 4 (1-25); Mexican bean beetle rating (Mexican bean beetle; 15 ppm): 0 (no larvae dead); Mexican bean beetle rating (Mexican bean beetle; 31 ppm): 0 (no larvae dead); Mexican bean beetle rating (Mexican bean beetle; 62 ppm): 0 (no larvae dead); Mexican bean beetle rating (Mexican bean beetle; 125 ppm): 5 (100% larvae dead); Mexican bean beetle rating (Mexican bean beetle; 250 ppm): 5 (100% larvae dead); Two-Spotted Mites rating (two-spotted mites; 15 ppm): 0 (no dead adults); Two-Spotted Mites rating (two-spotted mites; 31 ppm): 1 (1-25% dead adults); Two-Spotted Mites rating (two-spotted mites; 62 ppm): 2 (26-50% dead adults); Two-Spotted Mites rating (two-spotted mites; 125 ppm): 2 (26-50% dead adults); Two-Spotted Mites rating (two-spotted mites; 250 ppm): 3 (51-75% dead adults)
CCSc1nc(C)n(C(=O)N(CC)CC)n1 | 0 (no larvae dead) |  |  |  |  |  | 0 (none dead) |  | 0 (no larvae dead) | 0 (no dead adults) | 
CCN(CC)C(=O)n1cnc(SCC(C)C)n1 [British Patent 1,316,280] | 0 (no larvae dead) | 0 (none dead) | 0 (none dead) | 0 (none dead) | 0 (none dead) | 0 (none dead) | 4 (76-100% dead) | 0 (100) | 0 (no larvae dead) | 0 (no dead adults) | 
Cc1ccc(CSc2nc(C)n(C(=O)N3CCCCC3)n2)cc1 | 0 (no larvae dead) |  |  |  |  |  | 0 (none dead) |  | 0 (no larvae dead) | 0 (no dead adults) | 
CCN(CC)C(=O)n1nc(C)nc1SC [Example VII] | 0 (no larvae dead) | 0 (none dead) | 0 (none dead) | 0 (none dead) | 0 (none dead) | 4 (76-100% dead) | 4 (76-100% dead) | 0 (100) | 0 (no larvae dead) | 0 (no dead adults) | 
CCOC(=O)CSc1nc(C)nn1C(=O)N(C)C [Example XXV] | 0 (no larvae dead) | 3 (51= 75% dead) | 4 (76-100% dead) | 5 (100% dead) | 5 (100% dead) | 5 (100% dead) | 5 (100% dead) | 0 (100) | 5 (100% larvae dead) | 0 (no dead adults) | Mexican bean beetle rating (Mexican bean beetle; 15 ppm): 0 (no larvae dead); Mexican bean beetle rating (Mexican bean beetle; 31 ppm): 0 (no larvae dead); Mexican bean beetle rating (Mexican bean beetle; 62 ppm): 0 (no larvae dead); Mexican bean beetle rating (Mexican bean beetle; 125 ppm): 0 (no larvae dead); Mexican bean beetle rating (Mexican bean beetle; 250 ppm): 0 (no larvae dead)
CN(C)C(=O)n1cnc(Cl)n1 [Example XI] | 0 (no larvae dead) |  |  |  |  |  | 0 (none dead) |  | 0 (no larvae dead) | 0 (no dead adults) | 
CCN(CC)C(=O)n1nc(SCc2ccc(C)cc2)nc1C | 0 (no larvae dead) |  |  |  |  |  | 0 (none dead) |  | 0 (no larvae dead) | 0 (no dead adults) | 
